Each structure is given as a SMILES string. Out of some 50,000 compounds screened, about 800 (1.6%) showed an effect of 50% or more. This is one part of the list.

The assay addresses Bcl-2-like protein 10 (Homo sapiens) (UniProt Q9HD36). In words: Phenotype converters, Bcl-B/TR3 peptide binding displacement, primary biochemical FP (AID 1240).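 Also: 0% = Bcl-B with tracer peptide and DMSO and 100% = tracer peptide lacking Bcl-B.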 As to conditions: GST-Bcl-B / FITC-TR3 peptide fluorescence polarization; stronger effect = higher value; compound at 3.75 mg/L. A general note: Fluorescence polarisation rises when a labelled molecule tumbles more slowly, as on binding a larger partner.
UniProt Q9HD36, sequence (Q9HD36 whole entry, looked up): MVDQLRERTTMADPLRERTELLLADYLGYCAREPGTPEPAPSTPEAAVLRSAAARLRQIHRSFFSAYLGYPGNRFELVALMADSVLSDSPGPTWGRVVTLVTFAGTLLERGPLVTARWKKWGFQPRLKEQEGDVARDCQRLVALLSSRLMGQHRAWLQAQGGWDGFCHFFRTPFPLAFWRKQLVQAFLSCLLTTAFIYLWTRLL
With `CCOC(=O)c1c(NC(=O)Cc2ccc(OC)cc2)sc(C(=O)Nc2ccccc2F)c1C`, the displacement is 7.2%.
`CCOC(=O)c1ccc2[nH]c(C)c(C)c2c1`: the displacement was -6.1%.
In the case of `Clc1cccc(OCCN2CCOCC2)c1Cl` it was 8.4%; in that of `Cc1ccc(NC(=O)CN(c2ccc(C)cc2)S(=O)(=O)c2ccc(F)cc2)cc1`, 8%.
For `COc1ccc(-c2cc(C(F)(F)F)n3ncc(C(=O)O)c3n2)cc1` the value was -8.2%.
In the case of `COc1ccc(N(CC(=O)N2CCOCC2)S(=O)(=O)c2ccc(C)cc2)cc1OC` it was 11.4%.
Consider `Cc1ccc(C2=N/C(=C\c3ccccc3)C(=O)O2)cc1`, for which the displacement was -7.3%.
Turning to `COc1cc(/C=C2/SC(=S)N(CC(=O)O)C2=O)ccc1OCc1ccccc1`, the displacement worked out at 1.7%.
For `COc1ccc(/C=N/NC(=O)COc2ccccc2C)cc1Cl` the value was 2.3%.
In the case of `Nc1cc(N2CCOCC2)ccc1[N+](=O)[O-]`, the displacement was found to be 0.9%.
In the case of `O=C(/C=C/c1ccco1)NCc1ccc2c(c1)OCO2` it was 11.6%.
`CC(C)c1ccc(OC(=O)CN2C(=O)c3ccccc3C2=O)cc1`: the displacement is -1.6%.
For `Cc1ccc(N(CC(=O)Nc2ccccc2C)S(=O)(=O)c2ccccc2)cc1` the value was 11.8%; for `COc1cccc(OC)c1C(=O)Nc1cc(C)ccn1`, -10.7%.
In the case of `O=C(Cn1c(NCCO)nc2ccccc21)c1cccc([N+](=O)[O-])c1` it was -1.4%; in that of `O=C(O)C1C2C=CC(O2)C1C(=O)Nc1nccs1` (stereo not given), -7.9%.
On to `COc1cc(NC(=O)/C=C/c2ccccc2)cc(OC)c1`, for which the displacement was -12.8%.
In the case of `O=C(Nc1cccc(O)c1)c1ccc(Cl)cc1` it was 13.4%.
In the case of `Clc1ccc(SCCCN2CCOCC2)cc1` it was 19.9%; in that of `Cc1cc(C)c(C#N)c(SCC(=O)Nc2ccc([N+](=O)[O-])cc2)n1`, -4%; in that of `Cc1ccc(CNC(=O)CN(c2cccc(Cl)c2)S(=O)(=O)c2ccccc2)cc1`, 3.6%.
Regarding `CCOC(=O)COc1c(C)cc(Br)cc1C`, the displacement is -2.3%.
In the case of `C=C(C)Cn1c(SC)nc2sc3c(c2c1=O)CCC(C(C)(C)C)C3` (stereo not given) it was 6.7%.
In the case of `CCOc1ccc(N(CC(=O)NCC(C)C)S(=O)(=O)c2ccc(SC)cc2)cc1` it was 0.6%; in that of `Cc1cc(C)c2oc(-c3ccc(C)c(NC(=O)c4cccs4)c3)nc2c1`, 46.4%.
In the case of `O=C(Nc1ccccc1)Nc1nccs1` it was -2.1%; in that of `Cc1ccccc1C(=O)NNC(N)=S`, -6%.
For `CCOC(=O)C(CC(C)C)NC(=O)/C(=C\c1ccc(Br)cc1)NC(=O)c1ccccc1` (stereo not given), the displacement was -2.8%.
For `Cc1ccc(/C=N/NC(=O)c2cccnc2)o1` the value was 11.9%; for `Cc1ccc(/C(N)=N/OC(=O)c2ccccc2Br)cc1`, -1.6%.
As to `O=C(c1ccncc1)N1CCN(S(=O)(=O)c2ccc(Cl)cc2)CC1`, the displacement was -8.4%.
`O=Cc1ccccc1OCc1c(F)cccc1Cl`: the displacement worked out at 5.7%.
In the case of `Cc1ccccc1NC(=O)c1c(NC(=O)C(C)(C)C)sc2c1CCC(C)C2` (stereo not given) it was -5.3%; in that of `CCOc1ccc(N2C(=O)NC(=O)/C(=C\C=C\c3ccccc3)C2=O)cc1`, 0.6%.
Take `C=CCNC(=O)CN(c1ccc(Br)cc1)S(C)(=O)=O`: the displacement worked out at 17.2%.
Consider `Cc1cc(C)c2oc(-c3ccc(NC(=O)c4cc5ccccc5o4)cc3O)nc2c1`, for which the displacement was -13.4%.
In the case of `O=C(CSc1nnc2c(n1)[nH]c1ccccc12)N1c2ccccc2Sc2ccccc21` it was -4.4%; in that of `O=C(CSc1ncnc2nc[nH]c12)C12CC3CC(CC(C3)C1)C2`, -27.5%; in that of `CCOc1ccc(C(=O)Nc2ccc(CC)cc2)cc1Br`, 3.2%.
In the case of `O=S(=O)(/N=C(/Nc1ccccc1)c1ccccc1)c1ccccc1` it was 13.3%; in that of `O=C(O)c1ccccc1-c1ccccc1C(=O)Nc1ccccn1`, 6.6%.
In the case of `COc1ccc(C2(CNC(=O)/C=C/c3ccco3)CCCC2)cc1OC` it was 3.6%; in that of `COc1ccccc1-n1c(O)c(C=Nc2ccccc2Cl)c(=O)[nH]c1=O`, 1.2%; in that of `C=CCC1(O)CC(c2ccc(C)cc2)NC(c2ccc(C)cc2)C1C` (stereo not given), -4.3%.
Regarding `COc1ccccc1Nc1nc(C)c([N+](=O)[O-])c(Nc2ccccc2OC)n1`, the displacement came to 8.3%.
For `COc1ccc(Cl)cc1NC(=O)Cc1ccc(Br)cc1` the value was 1.3%.
Take `N#CC(C#N)=Cc1ccc(-c2cc(Cl)ccc2Cl)o1`: the displacement turned out to be 93.5%.
For the compound `COc1ccc2oc(=O)c(C(=O)Nn3cnnc3)cc2c1`, the displacement is 21.8%.
In the case of `CS(=O)(=O)c1ccc2nc(NC(=O)C3CCCCC3)sc2c1` it was -14.9%; in that of `O=C(O)CCCN1C(=O)/C(=C/c2cn(-c3ccccc3)nc2-c2cccc([N+](=O)[O-])c2)SC1=S`, 14.5%.
In the case of `COc1ccc(N/C(C)=C/C(=O)c2ccc(Cl)cc2)c(OC)c1` it was 0.8%; in that of `COc1ccc2[nH]c(C)c(CCC(=O)O)c(=O)c2c1`, -8.9%; in that of `CCOC(=O)c1c(N=CN(C)C)c2cc([N+](=O)[O-])cnc2n1C`, 2.2%.
In the case of `Cc1ccc(-c2nc(N/N=C/c3ccc(N(C)C)cc3)c3ccccc3n2)cc1` it was 9.4%; in that of `COc1ccc(OC)c(C2C3=C(CC(C)(C)CC3=O)OC3=C2C(=O)CC(C)(C)C3)c1`, 5.4%; in that of `CC(C)Oc1ccc(C2CC(=O)N(c3cccc(Br)c3)C2=O)cc1` (stereo not given), -6.6%.
Take `CCOc1cc(OCC)cc(C(=O)Nc2ccc(C)cc2[N+](=O)[O-])c1`: the displacement is 12.1%.
In the case of `COc1ccc(OC)c(NC(=O)CN(c2cc(OC)ccc2OC)S(C)(=O)=O)c1` it was 13.6%; in that of `Cc1oc2ccc(OCc3ccc(Br)cc3)cc2c1C(=O)O`, 10.8%.
In the case of `Cc1cccc(C(C)C)c1NC(=O)COc1ccc(Cl)cc1Cl` it was 13.3%.
In the case of `O=C(NCCC(CN1CCOCC1)([N+](=O)[O-])[N+](=O)[O-])c1ccccc1` it was -2.1%; in that of `COc1ccc(C2=C(/C=C3\SC(=S)NC3=O)C(c3ccccc3)c3ccccc3O2)cc1OC` (stereo not given), -2.6%.
Turning to `CC(=O)Nc1ccc(-c2cc(NC(C)=O)n(C)n2)cc1`, the displacement was -13.5%.
Consider `CCOC(=O)C1=C(NC(=O)CC)Oc2ccc3ccccc3c2C1c1ccccc1` (stereo not given), for which the displacement was -5.1%.
Regarding `CCSc1nnc(NC(=O)c2ccc(Br)o2)s1`, the displacement was determined as 11%.
With `COc1cc(OC)c(OC)cc1/C=N/NC(=O)CSc1nc2ccccc2[nH]1`, the displacement came out at 0.1%.
With `COc1ccc(C)cc1N(CC(=O)O)S(C)(=O)=O`, the displacement came to 0.9%.
With `CC(C)(C)c1cnc(NC(=O)c2ccccc2O)s1`, the displacement came to 5%.
On to `O=C1C(=O)c2ccccc2C(O)=C1c1ccc([N+](=O)[O-])cc1`, for which the displacement is 9.7%.
In the case of `COc1ccc(N2C(=O)NC(=O)/C(=C/c3cccn3-c3cccc([N+](=O)[O-])c3)C2=O)cc1` it was -4%; in that of `O=[N+]([O-])c1ccc(S(=O)(=O)N2CCCCCC2)cc1`, -2.3%.
Take `COc1cc(O)c(C(=O)c2ccccc2)cc1S(=O)(=O)O`: the displacement was -11.1%.
For `COCc1c(-c2ccccc2)c2cc([N+](=O)[O-])ccc2n1C` the value was -6.8%; for `O=C(Nc1ccc2c(c1)OCCO2)c1ccc(Br)cc1`, -0.2%.
With `CCOc1cc(C=O)cc(Br)c1OCc1ccccc1Cl`, the displacement was -11.4%.
For the compound `CCN(CC)S(=O)(=O)c1cc(C(N)=O)ccc1C`, the displacement is -7.1%.
As for `O=C(/C=C/c1cccc([N+](=O)[O-])c1)Nc1cc(Cl)ccc1Cl`, the displacement came to 3.4%.
In the case of `CC(=O)c1ccc(NC(=S)NC(NC(=O)C(c2ccccc2)c2ccccc2)C(Cl)(Cl)Cl)cc1` (stereo not given), the displacement was 21.3%.
For the compound `CCOC(=O)C1=C(O)/C(=C\c2ccc(F)cc2)N=C1C`, the displacement stood at 5.2%.
Take `CC1(C)CC(=O)C2=C(C1)OC1=C(C(=O)CC(C)(C)C1)C2c1cccc(O)c1`: the displacement was -8.5%.
In the case of `CCN1C(=O)/C(=C\c2ccc(-c3ccc(C(=O)O)cc3)o2)N(CC)C1=S` it was -28.4%.
Consider `CCOC(=O)c1sc(NC(=O)CCc2ccccc2)nc1C`, for which the displacement came to 1.8%.
`COc1cccc(/C=C2/SC(=O)N(CNc3ccc(I)cc3)C2=O)c1`: the displacement was -3.8%.
For `CCOC(=O)C1=C(O)/C(=C/N(C)C)SC1=Nc1cccc2ccccc12`, the displacement came to 6.8%.
In the case of `C/C(=N\NC(=O)c1cccnc1)c1ccc2ccccc2c1` it was 5.8%; in that of `COc1cc(C=C2C(=O)NC(=O)NC2=O)ccc1OC(C)C`, 11.8%.
In the case of `O=C(CSc1nc2ccccc2s1)Nc1ncccn1`, the displacement is 57.1%.
Regarding `O=C1/C(=C/c2ccccc2OCc2ccc([N+](=O)[O-])cc2)SC(=S)N1c1ccccc1`, the displacement turned out to be 12.7%.
For `CC(=O)c1cccc(NC(=O)c2ccc(N(Cc3ccc(Cl)cc3)S(C)(=O)=O)cc2)c1` the value was 24.6%; for `COC(=O)c1ccc(OCC(O)CN2CCOCC2)cc1` (stereo not given), -9.7%; for `O=C(CCN1C(=O)/C(=C/c2ccc(F)cc2)SC1=S)Nc1ccc(F)c(Cl)c1`, 14.1%.
In the case of `Cc1ccc2nsnc2c1NC(=O)c1cccc(Cl)c1` it was 0.8%; in that of `O=C1c2ccccc2C(=O)N1c1ccc(-c2nc3ccccc3c(=O)o2)cc1`, -7.1%.
In the case of `CC1(C)CC2(C=CC(=O)C=C2)C(SCc2ccccc2)=N1` it was -4.1%; in that of `COc1ccc(N2CC(C(=O)N/N=C/c3c[nH]c4ccccc34)CC2=O)cc1` (stereo not given), -3.6%; in that of `Cc1cccc(NC(=O)c2c(C)c(-c3ccccc3)nc3ccccc23)c1C`, -4.7%.
As for `c1cncc(CN2CCN(Cc3cccc4ccccc34)CC2)c1`, the displacement was 6.3%.
For `COc1cc(/C=C2\NC(=S)NC2=O)ccc1OCc1c(C)no[n+]1[O-]` the value was -3.6%.
In the case of `Cc1cc2nc(-c3cc(NC(=O)c4cccc([N+](=O)[O-])c4)ccc3Cl)oc2cc1C`, the displacement was -2.7%.
`COc1cc(C2Nc3ccccc3NC3=C2C(=O)CC(c2ccccc2)C3)cc(OC)c1O` (stereo not given): the displacement was 5.9%.
As for `COC(=O)C1=C(C)N(CCc2ccc(OC)c(OC)c2)C(=O)C1`, the displacement is 12.1%.
In the case of `CCOc1ccc(NS(=O)(=O)c2cc(-c3nnnn3C)ccc2OC)cc1` it was 7.8%; in that of `O=C(CN(c1ccc(F)cc1)S(=O)(=O)c1ccccc1)N1CCOCC1`, -2.8%; in that of `CCOC(=O)/C(C#N)=C/c1ccc(N2CCN(CCN3C(=O)c4cccc5cccc(c45)C3=O)CC2)cc1`, -8.7%.
For `Cc1ccc(-c2nc3cc(NC(=O)c4ccccc4I)ccc3o2)c(C)c1` the value was 4.5%; for `COc1ccc(/C=C2\NC(=S)N(c3ccccc3)C2=O)cc1OC`, 41.7%; for `CCC(=O)Nc1sc2c(c1C(=O)Nc1ccc(OC)cc1)CCCCC2`, 8.5%.
For `O=C(COc1ccc([N+](=O)[O-])cc1)Nc1cc(C(F)(F)F)cc(C(F)(F)F)c1` the value was -2.6%; for `CC(C)c1ccc(C=NCCCO)cc1`, -6.7%; for `CSc1nc(=O)n(C)c(C)c1C(C)=O`, 17.9%.

Values taken from PubChem BioAssay AID1240 (Sanford-Burnham Center for Chemical Genomics, 2008).
